# Source: the supplement of paper PMC10126150
# Values marked as one replicate rest on one cluster of the flow cell; about a third of the high ones do not repeat.
# System: ATP
# Assay: switch fluorescence ratio, 500 uM ATP over buffer (Cy3 cluster intensity, sum of 5 cycles each) (fold (ratio)); higher = stronger signal-on switching upon ATP binding; sequences stand for … in TCGTCGGCAGCGTCAGATGTGTATAAGAGACAGTTTTTTTTTTTTTTTTTTTTTTTTT…TC
# Conditions: aptamer strand: ATP DNA aptamer (quencher-CACCTGGGGGAGTATTGCGGAGGAAGG + anchor), 100 nM annealed; ATP concentration: 500 uM; one replicate
# Outline: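 Values give the fluorescence ratio for each switch-domain sequence, averaged from per-cluster ratios of summed target-cycle to summed buffer-cycle Cy3 intensity. The Cy3-labelled switching-strand clusters sat on a modified Illumina MiSeq flow-cell, were annealed to 100 nM quencher-labelled ATP aptamer, and were imaged in selection buffer, then after 15 min with 500 uM ATP at 22 °C. Five cycles ran with NaOH stripping and re-annealing between them, and clusters outside 100-1000 RFU were excluded.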
# 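Further: ATP exposure 15 min at 22 °C before imaging.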
row,Sequence,switch fluorescence ratio
1,TCGTAATGCT,1.38
2,TCGTAATGTC,1.09
3,TCGTACACTT,1
4,TCGTAGTGTC,1.08
5,TCGTAGTTTA,1.04
6,TCGTATAGGG,0.981
7,TCGTATGCAT,1.02
8,TCGTATGGGC,1.01
9,TCGTCCGGGT,0.994
10,TCGTCTATT,1.04
11,TCGTGACCCG,1.05
12,TCGTGATTAC,1.58
13,TCGTGCAGCG,0.947
14,TCGTGCCAAG,1.02
15,TCGTGCCGTA,0.966
16,TCGTGGAAAG,0.939
17,TCGTGGGAGA,1.01
18,TCGTGTAAGC,1.08
19,TCGTTACTGC,1.03
20,TCGTTAGTGC,1.02
21,TCGTTATACT,1.76
22,TCGTTCAATA,1.2
23,TCGTTCTACT,0.992
24,TCGTTGGCAC,1.03
25,TCGTTGTACT,1.07

row,Sequence,switch fluorescence ratio
1,TCGTTGTATT,1.01
2,TCGTTTCGAG,0.968
3,TCGTTTGCCT,1.04
4,TCTAAACAGC,1.02
5,TCTAAAGGTA,0.918
6,TCTAACTTGG,1.01
7,TCTAAGGCGG,0.993
8,TCTAAGTAG,0.996
9,TCTAATCCAG,0.947
10,TCTACACCAT,1.1
11,TCTACACCTT,1.25
12,TCTACATACG,1.42
13,TCTACCAAAA,1.04
14,TCTACCTATC,1.04
15,TCTACCTCTC,1.06
16,TCTACTAATT,1.01
17,TCTACTTCAT,1.01
18,TCTACTTGGT,0.977
19,TCTAGAGAGC,1.01
20,TCTAGGACCT,1.2
21,TCTAGGGGA,1.1
22,TCTAGGTCAT,1
23,TCTAGGTCCT,1.04
24,TCTAGGTTAT,0.975
25,TCTAGTTCG,0.961

row,Sequence,switch fluorescence ratio
1,TCTATAATGA,0.966
2,TCTATCATCG,0.974
3,TCTATCGTAA,1.35
4,TCTATGATG,1
5,TCTATGCGAG,1
6,TCTATGTAGT,0.972
7,TCTATTGTGA,0.989
8,TCTCACTAGT,0.993
9,TCTCAGGGGG,1.01
10,TCTCATATTT,0.988
11,TCTCCAACGG,1.29
12,TCTCCGTAGA,1.13
13,TCTCCGTTAA,5.33
14,TCTCCTTGTC,1.73
15,TCTCGACTTT,1.01
16,TCTCGCAAGT,3.42
17,TCTCGGAGCG,1.09
18,TCTCTAAATT,1.03
19,TCTCTATATC,1.06
20,TCTCTATCAG,0.992
21,TCTCTCGCGG,1.29
22,TCTCTCTGGA,0.989
23,TCTGAACCTA,1.01
24,TCTGAAGACG,1.07
25,TCTGAAGCAG,3.32

row,Sequence,switch fluorescence ratio
1,TCTGAATTGT,0.983
2,TCTGAGAACC,1.01
3,TCTGATAAAA,1.04
4,TCTGATGCCG,0.989
5,TCTGCACCGC,1.02
6,TCTGCACCTC,1.33
7,TCTGCGAGCC,1.18
8,TCTGCGTGT,1.02
9,TCTGCTCTAT,1.03
10,TCTGCTCTCG,1.01
11,TCTGCTTTGC,1.07
12,TCTGGAGAAT,1.02
13,TCTGGATCGG,1.04
14,TCTGGCGGCG,0.983
15,TCTGGGGACC,1.02
16,TCTGGGGCTA,1.04
17,TCTGGGTGTC,1.05
18,TCTGGTGCTT,1.04
19,TCTGGTTAGA,0.992
20,TCTGGTTCGT,0.986
21,TCTGGTTGAT,1
22,TCTGTATGGA,0.954
23,TCTGTCAAC,1.04
24,TCTGTCGGAG,1.09
25,TCTGTGACTG,0.983

row,Sequence,switch fluorescence ratio
1,TCTGTGCTAA,1.02
2,TCTGTGGAGA,1.02
3,TCTGTGGATG,0.958
4,TCTTAAATGG,0.99
5,TCTTAACTCG,0.985
6,TCTTACTGTA,1.07
7,TCTTAGACAG,0.973
8,TCTTATATAT,0.978
9,TCTTATATCA,1.02
10,TCTTATCTAA,0.964
11,TCTTATCTCT,1.02
12,TCTTATGAGG,1.02
13,TCTTCAAGGT,0.965
14,TCTTCCATGG,1.03
15,TCTTCCGGGT,1.09
16,TCTTCGACTG,0.989
17,TCTTCGGGCA,1.06
18,TCTTCGTACC,1.2
19,TCTTCGTTGC,1.15
20,TCTTCTGTAC,1.02
21,TCTTCTGTCT,0.961
22,TCTTGAGTAT,1.02
23,TCTTGATTTA,1.02
24,TCTTGCAA,2.64
25,TCTTGCGTAT,1.04

row,Sequence,switch fluorescence ratio
1,TCTTGGATTT,1.01
2,TCTTGGTAAG,1.02
3,TCTTGGTCA,0.982
4,TCTTGTTAAG,1
5,TCTTGTTAGT,0.991
6,TCTTTCAAAG,1.01
7,TCTTTCAGCT,1.03
8,TCTTTGAGAA,0.993
9,TCTTTGAGTA,0.992
10,TCTTTGCCAA,1.03
11,TCTTTGTAAA,0.984
12,TCTTTTCGCA,1.22
13,TCTTTTCTCT,1.01
14,TCTTTTGACG,0.922
15,TGAAAAAGCG,0.965
16,TGAAAAGAAT,0.988
17,TGAAAATAAC,1.03
18,TGAAAATTGG,0.962
19,TGAAACGTTC,1.18
20,TGAAAGACCG,1.05
21,TGAAAGGCG,0.992
22,TGAAAGTGAT,1.05
23,TGAAAGTGGG,0.963
24,TGAAATTACA,1
25,TGAACAGTA,1.01

row,Sequence,switch fluorescence ratio
1,TGAACCAGCT,1.03
2,TGAACTGTCT,1.48
3,TGAACTTCCT,1.14
4,TGAAGAACGT,1.08
5,TGAAGCACGT,1.1
6,TGAAGGCGGT,1.06
7,TGAAGGGCA,1.02
8,TGAAGGTCGA,1.02
9,TGAAGTAGTG,0.975
10,TGAAGTTAGA,1.02
11,TGAAGTTGCA,1.03
12,TGAAGTTTGG,0.983
13,TGAATAAACC,1.06
14,TGAATAAGTG,1
15,TGAATATCC,1.04
16,TGAATCGCCA,1.04
17,TGAATCGTGG,0.981
18,TGAATTAAAT,0.974
19,TGAATTGATC,0.98
20,TGAATTGTA,0.987
21,TGAATTGTCA,0.994
22,TGACAAATTA,1.09
23,TGACAACCG,0.995
24,TGACACACAT,1.35
25,TGACACGCAT,1.43

row,Sequence,switch fluorescence ratio
1,TGACACGTA,1.16
2,TGACAGTATA,1.02
3,TGACATGGAG,1
4,TGACATTATG,1.03
5,TGACCAAGTG,0.926
6,TGACCGAGGG,1.02
7,TGACCGGTCA,0.979
8,TGACCGTGGC,1.09
9,TGACCTTCAG,0.963
10,TGACGACGTG,1.05
11,TGACGCCACC,3.47
12,TGACGCTAAG,1.06
13,TGACGGCAA,1.26
14,TGACGGTTAC,1.9
15,TGACGTATGC,1.22
16,TGACGTCGCT,0.971
17,TGACTAGCAG,1.01
18,TGACTCATG,1.01
19,TGACTCTAGA,1.08
20,TGACTGATCA,0.999
21,TGACTTACGC,1.36
22,TGAGAAATGT,0.976
23,TGAGAAGCAC,1.15
24,TGAGACATGG,0.999
25,TGAGACCAAA,0.952
